The text below walks through data of patent US10941114B2, “Small molecule lipid II inhibitors” (University Of Maryland, Baltimore, priority 2015, dated 2021).

For this assay, the system named is S. aureus USA300. In words: MRSA peritonitis model. The conditions noted are these: S. aureus USA300 IP, n=5; for animals surviving the length of the experiment: treated at 2 hours and 8 hours post-infection, compounds at the MTD, vancomycin 50 mg/kg.

On to `CN(CCC#N)c1ccc(/C=C/c2cc(-c3ccc(Br)cc3)cc(-c3ccc(Br)cc3)[n+]2C)cc1.[I-]` [Compound 12c], for which the “animals surviving the length of the experiment” value is listed as “all animals”. `CC(C)C[n+]1c(/C=C/c2ccc(N(C)C)cc2)cc(-c2ccc(Br)cc2)cc1-c1ccc(Br)cc1.[I-]` [EL-1]: under “treated at 2 hours and 8 hours post-infection at the MTD”, the survival was found to be 80%. On to `CN[C@H](CC(C)C)C(=O)N[C@H]1C(=O)N[C@@H](CC(N)=O)C(=O)N[C@H]2C(=O)N[C@H]3C(=O)N[C@H](C(=O)N[C@H](C(=O)O)c4cc(O)cc(O)c4-c4cc3ccc4O)[C@H](O)c3ccc(c(Cl)c3)Oc3cc2cc(c3O[C@@H]2O[C@H](CO)[C@@H](O)[C@H](O)[C@H]2O[C@H]2C[C@](C)(N)[C@H](O)[C@H](C)O2)Oc2ccc(cc2Cl)[C@H]1O` [vancomycin, reference compound], for which the “animals surviving the length of the experiment” value is reported as “all animals”.
